# Measurements as given in publication PMC12136788.
# Some of the results follow.
# T1: UNK ZnF1-3 (human, UniProt Q9C0B0 31-174)
# T1 sequence: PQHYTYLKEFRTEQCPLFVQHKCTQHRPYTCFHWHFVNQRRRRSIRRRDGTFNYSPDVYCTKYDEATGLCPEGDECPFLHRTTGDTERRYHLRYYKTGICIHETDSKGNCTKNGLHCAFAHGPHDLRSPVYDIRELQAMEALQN
# B1: chr2:48026839:48026840:+_ENSG00000116062_ENST00000540021|hu_hu|hu_hu_hu_mus_False|28_98 (ssRNA)
# RNA: GGGAGUUCUACAGUCCGACGAUCAUAGUGAGCCACUAGAGUCCUAAAUCUGGAACAGUGGCGGUCAUCCGAAAACUGGCCGAUGAAAAACUUGCCCAGUGAAGUGUCAACAAAGCAAACACCAUACACACGAGUGUGACCAGACAACAGAGGAUUGAGCAUCA
# B2: chr11:60016922:60016923:-_ENSMUSG00000020538_ENSMUST00000020846|mus_mus|FALSE|FALSE (ssRNA)
# RNA: GGGAGUUCUACAGUCCGACGAUCCAGCUUAUGGUAGACAACAGCCGCAUCCCGGGCACUGGCACGGGCAUCCUUCCUCAGCCCACGGUCCCUCAGCAGGCCCCCGGCCUGGCCUGCCAGCCAGCGGCCCACCCAGAGACGCUGCAACAGAGGAUUGAGCAUCA
# B3: chr2:241070358:241070359:-_ENSG00000172428_ENST00000607357|hu_hu|FALSE|FALSE (ssRNA)
# RNA: GGGAGUUCUACAGUCCGACGAUCGAACAGAAUCAUCUAGGUCGUUAAGAACAGUCUUAUCUUUCUGGUUAACCAGGUCCUAAAUUCAAGGGAUUUCCACGUGUUCUUUAAAACCACCUGAAACUGUCCUGCGCAGGCUCACACCAACAGAGGAUUGAGCAUCA
# B4: 93608286_93609282_2944_CDS_ENSG00000107854_ENST00000371627|human|control|control (ssRNA)
# RNA: GGGAGUUCUACAGUCCGACGAUCAUCUACUCCUGGAACCUCCUUUUUCUCCAAACUGGAAGCACCCUCUGUUCCACUUGAACUAACUACUGAAGACAGUUCUGAAAAACUCCCAGAUAAGUUGUCAAGACUGCUGGCUGCAGACAACAGAGGAUUGAGCAUCA
# B5: chr5:173383253:173383254:+_ENSG00000113742_ENST00000334035|hu_hu|FALSE|FALSE (ssRNA)
# RNA: GGGAGUUCUACAGUCCGACGAUCAAAACACCUAUAUUAUAGGUCAUUCUUUUCAUUAUACUAUAGUUAAGUUACAGACUGCUACAAAAGGACAUGCCAGCGUGAAGAGGUUGAGGAAGGGGUCAGAAUGAACAGAAGAGUGCACAACAGAGGAUUGAGCAUCA
# B6: chrX:98862621:98862622:+_ENSMUSG00000034160_ENSMUST00000044475|mus_hu|mus_mus_mus_hu_False|18_48 (ssRNA)
# RNA: GGGAGUUCUACAGUCCGACGAUCCUGCAUCUCCUUUAGAGUGUUUCCCAUAUUAGAGUAGGCAUCAGCAAAGGUAGGACUGAUUCGUAUGGCUUCUUUAUAAUGCAUCAGAGCUUCCUGCAGCUUGCCCUGCUGCUGCAGUACCAACAGAGGAUUGAGCAUCA
# B7: chr6:52671308:52671309:+_ENSMUSG00000004535_ENSMUST00000080723|mus_hu|FALSE|FALSE (ssRNA)
# RNA: GGGAGUUCUACAGUCCGACGAUCCCACAUUUUGAAAGAUGACAUGGGCAAAGUUGGAAGUCUGCAAUGGGACUUCUUGAAAGGAUGUCAUUGUGAAUCCAGUGGAAAGACUCCCGGAUCAAGGGAGAAAGUUACGCAGGCUUCCAACAGAGGAUUGAGCAUCA
# B8: chr10:70508923:70508924:+_ENSG00000060339_ENST00000535016|hu_hu|motif|central (ssRNA)
# RNA: GGGAGUUCUACAGUCCGACGAUCUCUUCCUGAAAAUCGGGAUGGGGGAUCUAAUCGUCGUGCCGGUUGUGGCUGUGAAACGGUACGAACAGGAGGCUGCAAUAAACCAGCUUUUUGCUGAGGCUGCUGUAAUAAGGGCUGUGGCAACAGAGGAUUGAGCAUCA
# B9: chr4:17845017:17845018:+_ENSG00000109805_ENST00000514176|hu_mus|hu_hu_hu_mus_False|38_88 (ssRNA)
# RNA: GGGAGUUCUACAGUCCGACGAUCGCUCUCUUAACUUGUAUCUUCAUGAGAAAUUGGUGCAAGGUUAAGUUUACUUUUCUGUAGCGCAGCUGUUUUGCUCGUCUUGGGUAAUCUCAUCUUCAUUUCUGAUGGUGGUUCAUGAUCCAACAGAGGAUUGAGCAUCA
# B10: chr2:60072280:60072281:+_ENSMUSG00000026977_ENSMUST00000102748|mus_mus|FALSE|FALSE (ssRNA)
# RNA: GGGAGUUCUACAGUCCGACGAUCUCUUCGUGAGAAAAAAGUAGAUGACAUGCUAGAAGCUAUCCGUGACAGCAAUCUCCUAGUUGUACGCCUACCUUCAUUGUCAGAAGAUUCUCGAUAUGGUCUCUGAGAUGAACCCCUUUCCAACAGAGGAUUGAGCAUCA
# B11: chr19:7500544:7500545:-_ENSMUSG00000024758_ENSMUST00000025667|mus_hu|FALSE|FALSE (ssRNA)
# RNA: GGGAGUUCUACAGUCCGACGAUCCACAGACACGUACACACAGUUUCAUUAGUAAUUUUUCAUCUAUAGGUUUUUCUUAAAAAAAAAAAAAAAUCCUGUGUGGCACAAAGAUCUCUUCAAUUAUCUAAACACAGCAGCAACAAACAACAGAGGAUUGAGCAUCA
# B12: 119749387_119749507_2886_CDS_ENSMUSG00000033943_ENSMUST00000110774|mouse|control|control (ssRNA)
# RNA: GGGAGUUCUACAGUCCGACGAUCAACAGGGUAUGGUAAAAUAGACUUAUAAGAUGAUUUAGUUCGGCCACUGAGUGUUGUCUGUUUGUUCUGAGCCUUUGUUUUUCGAGAGGCAGUGGUUACAGACUGAGGCUUCACAGAGUGCAACAGAGGAUUGAGCAUCA
# B13: chr4:76703833:76703834:+_ENSG00000138768_ENST00000264904|hu_hu|motif|central (ssRNA)
# RNA: GGGAGUUCUACAGUCCGACGAUCUUGGAGUUGUUGUUUUUUAAUAAGUUUUGGAGCAAAAUCAAACAAUCUUCAACGGCGGUACCUCCAUCACUGUUCCCCUCCUCUGAAAUAAUGUCCAGUAGUCUCUCGAAAGCAUUUUCACAACAGAGGAUUGAGCAUCA
# B14: chr19:16212804:16212805:+_ENSG00000167460_ENST00000300933|hu_mus|hu_hu_hu_mus_False|8_98 (ssRNA)
# RNA: GGGAGUUCUACAGUCCGACGAUCAACAAUUCUGGAGAAGAACAUCAAUGUAACAUGGAACAGCAUUAAAGCUCAGUCAGAAGGCACAUGGGCAACAAUGAUCACCCCAGCAUUCUCGCUUGGAAUGUGCUUGAGAAAUCUGUUCAACAGAGGAUUGAGCAUCA
# Target: T1, UNK ZnF1-3
# Assay: nsRBNS (natural sequence RNA bind-n-seq); RBNS binding buffer (assumed for nsRBNS): 25 mM Tris pH 7.5, 150 mM KCl, 3 mM MgCl2, 0.01% Triton X-100, 500 ug/ml BSA, 20 U/ml SUPERase-In, 4 C; UNK is unkempt and MSI1 is Musashi-1; names of the RNAs are library labels; protein concentration not given here; high values mean tight binding
row,Binder,binding signal
1,B1,1.33 enrichment R
2,B2,0.427 enrichment R
3,B3,1.02 enrichment R
4,B4,1.27 enrichment R
5,B5,1.87 enrichment R
6,B6,0.956 enrichment R
7,B7,1.29 enrichment R
8,B8,1.37 enrichment R
9,B9,0.344 enrichment R
10,B10,0.488 enrichment R
11,B11,1.84 enrichment R
12,B12,0.733 enrichment R
13,B13,1.19 enrichment R
14,B14,1.28 enrichment R
